From patent publication US9505824B2, “Antigen peptide derived from the sequence of epidermal growth factor receptor having T790M point mutation” (Kanagawa Prefectural Hospital Organization, priority 2012, dated 2016)

Tests used:
[1] = system: NCI-H1975-A2 (HLA-A2+ T790M+)
[2] = system: NCI-H1975 (HLA-A2− T790M+)
[3] = system: NCI-H1975-A2 (HLA-A2+ T790M+); test: Calcein cytotoxicity assay of T790M-A-specific CTL line; format: cell-based; conditions: Calcein labeling
Procedure: (§1) FIG. 11. Reactivity of T790M-A-specific CTL line against NSCLC cell lines having the EGFR T790M mutation (3).
(§2) Cytotoxicity of peptide-specific CTLs was examined by an assay with Calcein labeling. Target cells (NCI-H1975 or NCI-H1975-A2) were labeled with Calcein AM (Dojindo, Kumamoto, Japan). The target cells (1×10^4 cells) were co-cultured with effector cells at the following effector/target ratio for 4-6 hours in 96-well half plate (Corning, N.Y., USA). Cytotoxicity was determined with Terascan VPC system (Minerva Tech). The effector/target ratio was 3:1 or 10:1.

[4] = system: NCI-H1975 (HLA-A2− T790M+); test: as above; format: cell-based; conditions: Calcein labeling; HLA-A2-negative cells
Procedure: as §1, §2

CSCC[C@H](NC(=O)[C@H](CC(C)C)NC(=O)[C@H](CCC(N)=O)NC(=O)[C@@H](N)CCSC)C(=O)N1CCC[C@H]1C(=O)N[C@@H](Cc1ccccc1)C(=O)NCC(=O)N[C@@H](CS)C(=O)N[C@@H](CC(C)C)C(=O)N[C@@H](CC(C)C)C(=O)O [Peptide T790M-5, MQLMPFGCLL]
cytotoxicity of peptide-stimulated PBMCs against NCI-H1975-A2 [1]: substantial cytotoxicity
cytotoxicity of peptide-stimulated PBMCs against NCI-H1975 [2]: not against HLA-A2-negative NCI-H1975 cells

CC[C@H](C)[C@H](NC(=O)[C@@H](N)CC(C)C)C(=O)N[C@@H](CCSC)C(=O)N[C@@H](CCC(N)=O)C(=O)N[C@@H](CC(C)C)C(=O)N[C@@H](CCSC)C(=O)N1CCC[C@H]1C(=O)N[C@@H](Cc1ccccc1)C(=O)NCC(=O)N[C@@H](CS)C(=O)N[C@@H](CC(C)C)C(=O)O [Peptide T790M-7, LIMQLMPFGCL]
cytotoxicity of peptide-stimulated PBMCs against NCI-H1975-A2 [1]: substantial cytotoxicity
cytotoxicity of peptide-stimulated PBMCs against NCI-H1975 [2]: not against HLA-A2-negative NCI-H1975 cells

IMQLMPFGC [Peptide T790M-A, IMQLMPFGC]
cytotoxicity of T790M-A-specific CTL line against NCI-H1975-A2 [3]: showed cytotoxicity against NCI-H1975-A2
cytotoxicity of T790M-A-specific CTL line against NCI-H1975 [4]: not against HLA-A2-negative NCI-H1975 cells

No end group written: not given here.
